# Source: the RNAGym collection of RNA variant scans (doi:10.1093/nar/gkz1192)
# Read counts are not given, so values of variants with three or more changes are uncertain.
# B1: CPEB3 Ribozyme (parent)
# chain: UAACAGGGGGCCACAGCAGAAGCGUUCACGUCGCAGCCCCUGUCAGAUUCUGGUGAAUCUGCGAAUUCUGCUGUAUAUCUC
# Variants of: B1
# Test: self-cleavage, relative activity (ratio to wild type); higher = more cleavage; in vitro, sequencing
# Method in brief: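 Relative activity was defined as the cleaved/total read fraction for a variant divided by the same fraction for the unmutated ribozyme. CPEB3 self-cleaving ribozyme libraries were made by rounds of error-prone PCR, barcoded, and transcribed in vitro with T7 RNA polymerase for 5 hours at 37°C, and cleavage ran through transcription plus a 15 min DNase I step before EDTA. Illumina sequencing of template-switched reverse transcripts gave the reads, and DNA sequencing mapped the barcodes. Averages come from three batches, using variants with at least 5 reads.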
row,Variant,self-cleavage
1,CAACAGGUGGCCACUACAGAAGCGUUCACGUCGCAGCCCCCGUCAGAUUCUGGUGAAUCUGCGAAUUCUGCUGUAUGUCUC [U1C G8U A15U G16A U41C A77G],0.06
2,CAACAGUGGGCCACAGCAGAAGGGUCCACGUCGCAGCCCCUGUCAGAUUCAGGUGAAUCUGCGAAUUCUGCUGUAUAGCUC [U1C G7U C23G U26C U51A U78G],0.04
3,CAACAGGGGGCCACAGCAAAAGCGUUCACGUCGCGGCCCCUGUCAGAUUCUGGUGAAUCUGCGAAUUCUGCUAUAUAUCUC [U1C G19A A35G G73A],1.18
4,CAACAGGGGACCACAGCAGAAGCGUUCACGUCGCAGCCCCUGUCAGAUUCUGGUGAAUCUGCGAAUUCCGCUGUAUAUCUC [U1C G10A U69C],0.13
5,CAACAGGGGACCACAGCAGAAGCGUUCACGUCGCAGCCCCUGUCAGAUUCUGGUGAAUCUGUGAAUUCUGCUGUAUAUCUC [U1C G10A C62U],0.03
6,CAACAGGGGGCCACAUCAGAAGCGUUCACGUCGCAGCCCCGGUCAGAUUCUGGUGAAUCUGCGAAUUCUGCUGUAUAUCUC [U1C G16U U41G],0.06
7,CAACAGGAGGCCACAGCGGUAGCGUUCACGUCGCUGCCCCUGUCAGAUUCUGGUGAAUCUGCGAAUUCUGCUGUAUAUCUC [U1C G8A A18G A20U A35U],0.14
8,CAACAGGGGGCCACAUCAGAAGCGUUCACGUCGCAGCCCCCGUCAGAUUCUAGUGAAUCUGCGAAUUCGGCUGUAUAUCUC [U1C G16U U41C G52A U69G],0.21
9,CAACAGGAGGCCGCAGCAGAGGCGUUCACGUCGCAGCCCCUGUCAGAUUCUGGUGAAUCUGCGAAUUCUGCCGUAUAUCUC [U1C G8A A13G A21G U72C],0.06
10,CAACAGGAGGCCACAGCAGUAGCGUUCACGUCGCAGCCCCUGUCAGAUCCUGGUGAAUCUGCGGAUUCUGCUGUAUAUCUC [U1C G8A A20U U49C A64G],0.04
11,CAACAGUGGGCCACGGCAGAAGCGUUCACUUCGCAGCCCCUGUCAGACUCUGGUGAACCUGCGAAUUCUGCUGUAUUUCUC [U1C G7U A15G G30U U48C U58C A77U],0.14
12,CAACAGUGGGCCACAGCAGAAGCGUUCACGUCGCAGCCCCUGUCAGAUUCCGGUGUAUCUGCGAAUUCUGCUGUAUAUCUC [U1C G7U U51C A56U],0.1
13,CAACAGGGGACCACAGCGGAAGCGUUCACGUCGCAGCCCCUGUCAGAUUCUGGUGAAUCUGCGAAUUCUGCUGUAUAUCUC [U1C G10A A18G],0.34
14,CAACAGGAGGCCACGGCAGAAGCGUUCACGUCGCAGCCCCUGUCAGAUUCUGGUGAAUCUGCGAAUUCUGCUGUAUAUCUC [U1C G8A A15G],0.05
15,CAACAGGGGACCACAGCAGAAGCGUUCACGUCGCAGCCCCUGUCAGAUUCUGGUGAAUCUGCGAAUUCUACUAUAUAUCUC [U1C G10A G70A G73A],0.32
16,CAACAGGGGGCCACAUCAGAAGCGUUCACGUCGCAGCCCCUGUCAGAUUCUGGUGUAUCAGCGAAUUCUGCUGUAUACCUC [U1C G16U A56U U60A U78C],0.06
17,CAACAGGAGGCCACAGCAGAAGCGUUCACGUCGCAGCCCCUGUCAGAUCCUGGUGAAUCUGCGAAUUCUGCUGUAUUUCUC [U1C G8A U49C A77U],0.04

row,Variant,self-cleavage
1,CAACAGGGGGCCACAACAGAAGCGUACACGUCGCAGCCCCUGUCAGAUACUGGUGAAUCUGCGAAUUCUGCUGUAUAUCUC [U1C G16A U26A U49A],0.29
2,CAACAGGGAGCCACAGCAGAAGCGCUCACGUCGCAGCCCCUGUCAGAUUCUGGUGAAUCUGCGAAUUCUGCUGUAUAUCUC [U1C G9A U25C],0.06
3,CAACAGGGAGCCACAGCAGAAGCGUUCACGUCGCAGACCCUGUCAGAUUCUGGUGAAUCUGCGAAUUCUGCUGUAUAUCUC [U1C G9A C37A],0.35
4,CAACAGGUGGCCACAGCAGAAGCAUUCACGUCGCAGCCCCUGUCAGAUUCUGGUGAAUCUGCGAAUUCUGCUGUAUACCUC [U1C G8U G24A U78C],0.06
5,CAACAGGGGACCACAGCAGAUGCGUUCACGUCGCAGCCCCUGUCAGAUUCUGGUGAAUCUGCGAAUUCUGCUGUAUAUCUC [U1C G10A A21U],0.17
6,CAACAGGGGUCCACAGCAGAAGCGUUCACGUCGCAGCCCCUGUCAGAUUCUGGUGAAUCUGCGAAUUCUGCUGUAUACCUC [U1C G10U U78C],0.28
7,CAACAGGGGGCCACAACAGAAGCGCUCGCGUCGCAGCCCCUGUCAGAUUCUGGUGAAUCUGCGAAUUCUGCUGCAUAUCUC [U1C G16A U25C A28G U74C],0.07
8,CAACAGGGUGCCACUCCAGAAGCGUUCACGUCGCAGCCCCUGUCAGAUUCAGGUGAAUCUGCGAAUUCUGCUGUAUAUCUC [U1C G9U A15U G16C U51A],0.05
9,CAACAGGCGGCCACAGCAGAAGCGUUCACGUCGCAGCCCCUGUCAGAUUCUGGUGAUUCUGCGAAUUCUGCUGUAUAUCUC [U1C G8C A57U],0.37
10,CAACAGGGGACCACAGCAGAAGCGUUCACGUCGCUGCCCCUGUCAGAUUCUGGUGAAUCUGCGAAUUCUGCUGUAUAUCUC [U1C G10A A35U],0.21
11,CAACAGUGGGCCACAGCAGAAGCGUCCACGACGCAGCCCCUGUCAGAUUCUGGUGAACCCGCGAAUUCUGCUGUAUAACUC [U1C G7U U26C U31A U58C U60C U78A],0.03
12,CAACAGGAGGCCACAGCAGAAGCGUUCACGUCGCAGCCCCUGUCAGAUUCUGGUGAAUCCGCGAAGUCUGCUGUAUUUCUC [U1C G8A U60C U66G A77U],0.19
13,CAACAGGAGGCCACGGCAGAAGCGUUCAUGUCGCAGCCCCAGUCAGAUUCUGCUGAAUCUGCGAAUUCUGCUGUAUAUCCC [U1C G8A A15G C29U U41A G53C U80C],0.04
14,CAACAGGCGGCCACAGCAGAAGCGUUCGCGUCGCAGCCCCUGUCAGAUUCUGGUGAAUCUGCGAAUGCUGCUGUAUAUCUC [U1C G8C A28G U67G],0.05
15,CAACAGUGGGCCACAGCAGAGGCGUUCACGUCGCAGCCCCUGUCAGAUUCUGGUGAAUCUGCGAAUUCUGCUGUAUAUCUC [U1C G7U A21G],0.07
16,CAACAGGGAGCCAUAGCAGAAGCGUUCACGUCGCAGCCCCCGUCAGGUUCUGGUGAGUCUGCGAAUUCUGCUGUAUAUCUC [U1C G9A C14U U41C A47G A57G],0.52
17,CAACAGGAGGCCACAGCAGAAGCGUUCACGUCGCAGCCACUGUCAGAGUCUGGUGAAUCUGCGAAUUCUGCUGUAUGUCUA [U1C G8A C39A U48G A77G C81A],0.04
